According to publication PMC4336329 (PLoS ONE, 2015):
The whole screen tested about 310,000 compounds, of which about 2,200 (0.71%) showed an effect of 50% or more. The effect is printed as a negative number. Some of the results follow.

molecular target: human ether-à-go-go-related gene (hERG) potassium channel (human, UniProt Q12809); test: primary screen, population patch clamp on CHO cells stably expressing hERG
Sequence (Q12809 whole entry, looked up): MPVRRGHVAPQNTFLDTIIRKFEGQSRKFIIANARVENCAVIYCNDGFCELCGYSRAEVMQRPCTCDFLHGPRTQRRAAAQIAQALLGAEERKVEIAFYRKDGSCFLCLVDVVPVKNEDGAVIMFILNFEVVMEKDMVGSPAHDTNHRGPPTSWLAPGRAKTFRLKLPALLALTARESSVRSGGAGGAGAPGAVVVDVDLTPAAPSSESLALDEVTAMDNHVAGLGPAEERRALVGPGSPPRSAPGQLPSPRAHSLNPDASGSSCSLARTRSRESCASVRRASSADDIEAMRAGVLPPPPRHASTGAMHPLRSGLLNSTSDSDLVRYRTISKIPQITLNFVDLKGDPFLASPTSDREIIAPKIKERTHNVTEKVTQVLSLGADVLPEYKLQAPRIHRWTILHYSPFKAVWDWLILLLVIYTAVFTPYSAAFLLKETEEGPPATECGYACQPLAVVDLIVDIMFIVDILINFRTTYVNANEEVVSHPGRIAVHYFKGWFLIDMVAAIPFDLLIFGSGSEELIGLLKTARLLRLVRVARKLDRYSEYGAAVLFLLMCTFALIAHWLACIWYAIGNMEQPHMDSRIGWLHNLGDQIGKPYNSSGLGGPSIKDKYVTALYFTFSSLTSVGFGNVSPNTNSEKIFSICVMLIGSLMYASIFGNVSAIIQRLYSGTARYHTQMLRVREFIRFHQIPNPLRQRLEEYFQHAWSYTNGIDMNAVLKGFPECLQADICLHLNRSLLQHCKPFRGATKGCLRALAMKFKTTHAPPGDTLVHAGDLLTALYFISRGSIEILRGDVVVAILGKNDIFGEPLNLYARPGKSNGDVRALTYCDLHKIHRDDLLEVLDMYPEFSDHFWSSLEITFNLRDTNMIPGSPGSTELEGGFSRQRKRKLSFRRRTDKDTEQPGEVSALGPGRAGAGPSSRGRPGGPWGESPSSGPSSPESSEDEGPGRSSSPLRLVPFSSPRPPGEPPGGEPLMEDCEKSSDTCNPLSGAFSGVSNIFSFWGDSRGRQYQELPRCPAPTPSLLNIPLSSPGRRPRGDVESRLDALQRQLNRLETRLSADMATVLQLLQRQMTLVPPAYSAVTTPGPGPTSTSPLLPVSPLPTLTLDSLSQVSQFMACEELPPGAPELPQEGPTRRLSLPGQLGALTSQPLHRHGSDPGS

| SMILES | hERG current change (%, negative = inhibition) at 1uM |
| --- | --- |
| CN1CCSc2ccc(C(=O)NCc3cccc(F)c3)cc21 | 17.1% |
| CSc1ccccc1OCc1cc(C(=O)N2CCN(C3CCCC3)C(=O)C2)no1 | -13.9% |
| Cc1ccc(O)c(N=Nc2ccccc2)n1 | 1.91% |
| COc1ccc(-c2nsc3c(SCc4ccccc4)ncnc23)cc1 | 4.45% |
| COc1ccc(CCN2CN(S(=O)(=O)c3ccc(C)cc3)c3nc4ccccc4nc32)cc1OC | 7.7% |
| COC(=O)c1sccc1NC(=O)c1ccc2c(c1)OCO2 | -0.869% |
| Cc1ccc(S(=O)(=O)N2CCN(c3ncnc4scc(-c5ccc(F)cc5)c34)CC2)cc1 | 13.8% |
| CCOC(=O)c1nc(Nc2ccc(C)cc2)c2ccccc2n1 | -4.71% |
| CSC(=O)CC(=O)NC(=O)c1ccccc1 | 0.864% |
| Cc1nn(CC(=O)N2N=C(C(F)F)CC2(O)C(F)F)c(C)c1[N+](=O)[O-] (centres unmarked) | 9.35% |
| Cc1ccccc1-n1ncc2c1CC(C)(C)CC2NC(=O)C1=CC(=O)CC(C)(C)O1 (centres unmarked) | 10.3% |
| CCOC(=O)N1CCN(C2CCCN(C(=O)c3ccccc3SC)C2)CC1 (centres unmarked) | 15.3% |
| CCCNc1nc2c(c(=O)[nH]c(=O)n2C)n1CCOc1ccccc1 | -27.5% |
| COc1ccccc1OC(=O)c1ccc(C)c(S(=O)(=O)N2CCOCC2)c1 | 2.71% |
| CCCCN(CCCC)NC(=O)c1ccccc1 | 12.4% |
| O=C(O)c1ccc(N2C(=O)CC(N3CCN(c4cccc(Cl)c4)CC3)C2=O)cc1 (centres unmarked) | 10.7% |
| Nc1cccc(O)c1 | 14.8% |
| CCC/C=N/NC(=O)c1ccccc1O | 17.2% |
| COc1ccc(CCN(C)C(=O)c2ccc(C)c(S(=O)(=O)N3CCCCC3)c2)cc1OC | 4.48% |
| CCn1c(C(=O)N2CCCC(C(=O)O)C2)cc2sccc21 (centres unmarked) | 8.81% |
| COC(=O)Cc1c(C)nc2nc(-c3ccco3)[nH]n2c1=O | 9.37% |
| COC(=O)c1c(NC(=O)COC(=O)[C@@H](NS(=O)(=O)c2cccc(Cl)c2)C(C)C)sc2c1CCC2 | 12.7% |

| SMILES | hERG current change (%, negative = inhibition) at 1uM |
| --- | --- |
| COc1ccc(N=Nc2cnc(C)nc2-c2ccccc2)cc1 | 12.4% |
| O=C(NCCc1ccccc1)C1CCN(S(=O)(=O)c2ccc(-n3cnnn3)cc2)CC1 | -20.9% |
| Cc1ccc(CN2CCCN(Cc3ccc(F)cc3Cl)S2(=O)=O)cc1 | 11.3% |
| O=C(Nc1nc2ccccc2n1CCN1CCCCC1)c1ccc(Cl)cc1 | -5.1% |
| O=C(CCN1CCN(c2ccccc2F)CC1)Nc1ccccc1Cl | 7.43% |
| CCN(CCNC(=O)CS(=O)(=O)Cc1nc(-c2cccc(OC)c2)oc1C)c1ccccc1 | 13.5% |
| COc1c(O)cccc1[C@@H](O)C1CCN(CCc2ccc(F)cc2)CC1 | -25.3% |
| CNc1cnn(-c2ccc(C)cc2)c(=O)c1Sc1ccc(C)cc1 | 6.52% |
| COC(=O)c1cc(C#N)c(SCc2ccccc2)nc1C | 5.93% |
| CCOc1ccc(C(=O)Nc2nc(C)cc(C)n2)cc1[N+](=O)[O-] | -28% |
| O=C(CN(c1ccc(Br)cc1)S(=O)(=O)c1ccc(Cl)c([N+](=O)[O-])c1)NCCc1ccccc1 | 18.8% |
| CCn1nnnc1NCc1c(OC)ccc2ccccc12 | 10.1% |
| COc1ccc(/C=N/Nc2cc(C)nc(N3CCOCC3)n2)cc1OC | 10.6% |
| Cc1ccc(C(=O)N/N=C\c2cc3c(cc2Br)OCO3)s1 | 14% |
| Cc1ccc(S(=O)(=O)/N=C(\N)Nc2nc(C)c3cc(C)c(C)cc3n2)cc1 | -7.23% |
| CCNc1nc(NCC)nc(SCC(C)=O)n1 | 17.1% |
| COc1ccc(Br)cc1/C=N/NC(=O)c1cccnc1 | 11.3% |
| Cc1ccc(S(=O)(=O)N(C)CCCC(=O)Nc2ccc(C)cc2C)cc1 | 10.4% |
| CCNc1nnc(SCC(=O)c2c(N)n(C3CC3)c(=O)[nH]c2=O)s1 | 6.93% |
| CCOc1cc(-c2sc(Nc3ccccc3)n[n+]2-c2ccc(F)cc2)ccc1OC.[Cl-] | 16.7% |
| CC(C)(C)NC(=O)[C@@H]1CN(Cc2cccnc2)CCN1C[C@@H](O)C[C@@H](Cc1ccccc1)C(=O)N[C@H]1c2ccccc2C[C@H]1O.O=S(=O)(O)O | 2.2% |
| O=C(c1ccc(Cn2c(=O)[nH]c3ccccc3c2=O)cc1)N1CCN(c2ccccn2)CC1 | 0.17% |

| SMILES | hERG current change (%, negative = inhibition) at 1uM |
| --- | --- |
| Cl.Cn1nnnc1SCCNCc1ccncc1 | 0.323% |
| CC(=O)Nc1ccc(N(C(=O)Cc2c[nH]c3ccccc23)C(C(=O)NC2CCCCC2)c2ccco2)cc1 (centres unmarked) | 14.7% |
| Cc1cc(S(=O)(=O)N(Cc2ccccc2)Cc2ccc(N(C)C)cc2)ccc1-n1cnnn1 | 12.1% |
| Cc1c(NC(=O)CSc2nnc(C(C)Oc3ccc(Cl)cc3)n2-c2ccccc2)c(=O)n(-c2ccccc2)n1C (centres unmarked) | 7.41% |
| CC(C)(C)N(C(=O)Cn1nnc(-c2ccc(F)cc2)n1)C(C(=O)NC1CCCC1)c1ccncc1.Cl (centres unmarked) | 13.7% |
| COc1ccc(CNC(=O)C2CCN(C(=O)[C@@H]3Cc4ccccc4CN3)CC2)cc1 | -13.7% |
| COc1cc(C2C3C(=O)N(c4ccc(F)cc4)C(=O)C3ON2c2ccccc2)ccc1O (centres unmarked) | 6.49% |
| COC(=O)[C@@H](Cc1ccccc1)NC(=O)NCCc1ccc(OC)c(OC)c1 | 14% |
| CCOc1ccccc1-c1cc(-c2n[nH]c(=S)n2CC)c2ccccc2n1 | 7.67% |
| COc1ccc(S(=O)(=O)N2CCN(CC(O)COc3ccc(C#N)cc3)CC2)cc1OC (centres unmarked) | -3.64% |
| Cl.OC(CN1CCCCC1)CN(c1ccccc1)c1ccccc1 (centres unmarked) | -14.3% |
| CCC12CC3CC(C1)CC(C(=O)Nc1nn[nH]n1)(C3)C2 | -11.9% |
| CCOc1ccc(NC(=O)CN(C)C(=O)Cc2n[nH]c(=O)c3ccccc23)cc1OCC | 4.88% |
| CCC(=O)Nc1ccc(S(=O)(=O)c2ccc(NC(=O)CC)cc2)cc1 | 16.8% |
| COc1ccc(NC(=O)[C@@H]2CCCN2S(=O)(=O)c2cccc3cccnc23)cc1 | 6.08% |
| C/C(=N/NC(=O)C1CCCC1)c1ccc(NC(=O)C(F)(F)F)cc1 | 13.8% |
| CC(=O)SC1CC(=O)N(c2ccc(C(C)(C)C)cc2)C1=O (centres unmarked) | 12.7% |
| O=C(NCCc1c[nH]c2ccccc12)c1ccccc1 | 9.74% |
| O=C(NCc1cccnc1)C(=O)c1c[nH]c2ccccc12 | 13.9% |
| Nc1nc2nc(-c3ccccc3)cc(=O)n2[nH]1 | 11% |
| CCOC(=O)c1oc2c(CN3CCN(CCO)CC3)c(O)c(CC)cc2c(=O)c1-c1nc2ccccc2s1 | 15.7% |
| O=c1c2cc3c(cc2[nH]c(=S)n1C1CCN(Cc2ccccc2)CC1)OCO3 | -2.26% |

| SMILES | hERG current change (%, negative = inhibition) at 1uM |
| --- | --- |
| O=C(CCCn1ncn2c(cc3occc32)c1=O)NCc1cccc(Cl)c1 | -18.8% |
| COc1ccc(NC(=O)C(F)(OC)C(F)(F)F)c(OC)c1 (centres unmarked) | -1.8% |
| Cc1cc(/C=C2\SC(=O)N(C)C2=O)c(C)n1-c1ccc(O)cc1 | 7.84% |
| CSc1ncc(Cl)c(C(=O)NCc2cccnc2)n1 | 15.3% |
| CC1=C(C(=O)OCc2ccccc2)C(c2cccs2)N2C(=O)CCSC2=N1 (centres unmarked) | 18.7% |
| CC(Sc1nc2ccccc2[nH]1)C(=O)NC1CCCCC1C (centres unmarked) | 8.22% |
| Cc1ccc2cccc(OCc3nnc(SCC(=O)O)n3C)c2n1 | 19% |
| S=c1[nH]nc(CCc2nc3ccccc3[nH]2)n1-c1ccccc1 | 13.3% |
| CCOc1ccc(N(CC(=O)NCCc2ccccc2)S(=O)(=O)c2ccccc2)cc1 | 14.1% |
| CCn1c(SCC(=O)Nc2cccnc2Cl)nnc1-c1ccccc1 | 4.14% |
| O=C(C[n+]1cccc(Br)c1)c1ccc(-c2ccccc2)cc1.[Br-] | -1.74% |
| C/C(Cn1nnc([N+](=O)[O-])n1)=N\NC(=O)c1ccc(Cl)c(Cl)c1 | -3.52% |
| Cc1cccc(-n2ccnc2SCC(=O)Nc2ccc3c(c2)OCCO3)c1 | -5.76% |
| CC1CCCN(c2sc(S(C)(=O)=O)nc2S(=O)(=O)c2ccc(Cl)cc2)C1 (centres unmarked) | 17.7% |
| Cc1cc2ccccc2c(=O)n1CC(=O)N(C)c1ccc(F)cc1 | 9.42% |
| O=C(Nc1ccccc1)Nc1nc(-c2ccc(F)cc2)cs1 | 18.8% |
| CC(C)(C)OC(=O)N1CCC(CC2CC(c3cccc(Br)c3)=NO2)(C(=O)NCC2CCCCC2)CC1 (centres unmarked) | 14.6% |
| COc1ccc(OC)c(NC(=O)CSc2n[nH]c(-c3cccnc3)n2)c1 | -11.3% |
| O=C(Nc1cccnc1Cl)c1cc(-c2ccc(Br)cc2)on1 | 22.3% |
| Cc1cc(Br)ccc1NC(=O)CN(C)C(=O)C1CSC2(C)CCC(=O)N12 (centres unmarked) | 14.7% |
